Experimental data published in paper PMC9638020.
These are yes or no findings as the source states them, for the method shown. In cells and extracts the contact can be indirect. Some binding calls cover weakened binding; strength is not graded here. Tags and fused reporters may be left off the sequences shown.

Chains of the proteins cited; added tags and fusions are not shown.
UniProt Q8IUC6: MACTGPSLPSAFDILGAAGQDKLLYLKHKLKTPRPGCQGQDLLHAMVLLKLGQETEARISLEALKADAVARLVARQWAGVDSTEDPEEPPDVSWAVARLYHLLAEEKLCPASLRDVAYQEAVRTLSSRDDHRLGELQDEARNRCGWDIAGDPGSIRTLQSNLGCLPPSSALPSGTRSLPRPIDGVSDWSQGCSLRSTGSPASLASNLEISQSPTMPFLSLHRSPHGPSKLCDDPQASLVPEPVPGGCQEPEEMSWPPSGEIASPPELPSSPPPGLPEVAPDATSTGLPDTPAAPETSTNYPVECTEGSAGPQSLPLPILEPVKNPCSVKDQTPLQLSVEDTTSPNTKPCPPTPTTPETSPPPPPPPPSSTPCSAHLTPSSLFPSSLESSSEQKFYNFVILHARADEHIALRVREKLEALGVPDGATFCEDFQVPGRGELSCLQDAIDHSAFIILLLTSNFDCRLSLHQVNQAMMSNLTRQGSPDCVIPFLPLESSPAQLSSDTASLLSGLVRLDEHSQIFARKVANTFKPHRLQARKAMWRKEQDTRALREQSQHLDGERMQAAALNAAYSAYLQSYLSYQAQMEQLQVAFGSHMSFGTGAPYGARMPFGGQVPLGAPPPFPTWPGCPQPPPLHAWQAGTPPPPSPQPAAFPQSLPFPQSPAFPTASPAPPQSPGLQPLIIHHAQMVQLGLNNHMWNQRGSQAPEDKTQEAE
UniProt Q99836: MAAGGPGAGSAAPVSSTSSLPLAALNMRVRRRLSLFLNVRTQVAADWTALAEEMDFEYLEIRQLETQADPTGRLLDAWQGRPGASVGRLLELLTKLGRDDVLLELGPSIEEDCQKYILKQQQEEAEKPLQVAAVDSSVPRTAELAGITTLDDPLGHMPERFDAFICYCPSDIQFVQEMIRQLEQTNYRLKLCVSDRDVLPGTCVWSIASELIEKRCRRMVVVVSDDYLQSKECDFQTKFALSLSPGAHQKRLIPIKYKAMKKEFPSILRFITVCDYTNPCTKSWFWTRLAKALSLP

Tests used:
[1] = target: T1, SARM1-FLAG (epitope-tagged SARM1 expressed endogenously with a triple FLAG tag and double strep tag on the C-terminal end, Sarm1^FLAG) (mouse (endogenous in Sarm1^FLAG iBMDMs)) (UniProt Q6PDS3); assay: co-IP; as a1 but non-infected Sarm1^FLAG iBMDMs transfected with MyD88-HA or TRIF-HA; anti-FLAG antibody and Protein A/G Plus agarose
T1 sequence: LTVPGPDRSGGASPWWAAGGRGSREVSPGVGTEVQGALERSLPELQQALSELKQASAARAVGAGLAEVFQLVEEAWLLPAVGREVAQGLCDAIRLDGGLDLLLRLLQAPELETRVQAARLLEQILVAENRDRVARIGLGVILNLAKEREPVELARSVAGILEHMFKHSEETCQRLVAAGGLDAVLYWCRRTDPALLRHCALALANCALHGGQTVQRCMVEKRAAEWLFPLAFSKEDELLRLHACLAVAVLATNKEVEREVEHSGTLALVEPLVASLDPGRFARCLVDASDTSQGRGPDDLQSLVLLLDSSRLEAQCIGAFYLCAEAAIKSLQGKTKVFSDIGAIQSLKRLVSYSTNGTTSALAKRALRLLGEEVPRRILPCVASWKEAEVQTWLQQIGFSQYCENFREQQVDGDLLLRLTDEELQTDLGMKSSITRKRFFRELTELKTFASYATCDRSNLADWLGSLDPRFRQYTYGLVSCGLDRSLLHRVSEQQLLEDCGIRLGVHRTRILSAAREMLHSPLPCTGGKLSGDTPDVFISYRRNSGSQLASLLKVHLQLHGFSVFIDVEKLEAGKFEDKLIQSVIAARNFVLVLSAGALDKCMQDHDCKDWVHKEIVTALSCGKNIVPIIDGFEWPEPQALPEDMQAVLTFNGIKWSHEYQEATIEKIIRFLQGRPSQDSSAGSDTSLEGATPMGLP

[2] = target: T1, SARM1-FLAG (epitope-tagged SARM1 expressed endogenously with a triple FLAG tag and double strep tag on the C-terminal end, Sarm1^FLAG) (mouse (endogenous in Sarm1^FLAG iBMDMs)); assay: co-IP; Sarm1^FLAG iBMDMs transfected with MyD88-HA or TRIF-HA, infected 20 h later with Kp52145 (MOI 100), collected at 3 h; RIPA lysates; anti-FLAG antibody and Protein A/G Plus agarose, 4°C; preimmune mouse IgG as negative control
[3] = target: T2, FLAG-SARM1 (retrovirally expressed in sarm1-/- iBMDMs) (mouse) (UniProt Q6PDS3); assay: co-IP; sarm1-/- iBMDMs expressing FLAG-SARM1, infected with Kp52145 for 24 h; anti-FLAG (M2) beads; immunoblot with anti-SARM1 and anti-AIM2
T2 sequence: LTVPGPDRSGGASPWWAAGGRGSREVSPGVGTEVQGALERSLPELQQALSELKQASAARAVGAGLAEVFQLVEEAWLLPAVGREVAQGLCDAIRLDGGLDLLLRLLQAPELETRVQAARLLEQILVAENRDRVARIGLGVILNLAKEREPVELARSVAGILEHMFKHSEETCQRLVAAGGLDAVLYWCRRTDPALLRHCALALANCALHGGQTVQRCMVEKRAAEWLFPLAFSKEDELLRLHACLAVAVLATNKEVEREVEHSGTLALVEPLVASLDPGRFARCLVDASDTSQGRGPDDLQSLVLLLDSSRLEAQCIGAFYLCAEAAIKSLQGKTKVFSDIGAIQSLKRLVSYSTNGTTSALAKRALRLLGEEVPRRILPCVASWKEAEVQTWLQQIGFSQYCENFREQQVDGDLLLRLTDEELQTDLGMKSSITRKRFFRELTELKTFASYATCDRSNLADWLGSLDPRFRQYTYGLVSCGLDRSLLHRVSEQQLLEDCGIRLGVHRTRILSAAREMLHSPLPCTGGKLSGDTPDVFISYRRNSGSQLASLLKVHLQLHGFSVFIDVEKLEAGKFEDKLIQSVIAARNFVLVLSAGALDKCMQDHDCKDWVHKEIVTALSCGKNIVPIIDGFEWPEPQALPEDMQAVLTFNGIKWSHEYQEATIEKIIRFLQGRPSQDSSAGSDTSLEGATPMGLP

[4] = target: T2, FLAG-SARM1 (retrovirally expressed in sarm1-/- iBMDMs) (mouse); assay: co-IP; as a3 but non-infected sarm1-/- iBMDMs expressing FLAG-SARM1; anti-FLAG (M2) beads; immunoblot with anti-SARM1 and anti-AIM2

## TRIF-HA (from UniProt Q8IUC6 1-712)
[1]
  binding: no binding (condition: non-infected cells)
[2]
  binding: binds

## MyD88-HA (from UniProt Q99836 1-296)
[1]
  binding: no binding (condition: non-infected cells)
[2]
  binding: binds

B1: AIM2 (absent in melanoma 2) (protein, UniProt Q91VJ1 1-354)
chain: MESEYREMLLLTGLDHITEEELKRFKYFALTEFQIARSTLDVADRTELADHLIQSAGAASAVTKAINIFQKLNYMHIANALEEKKKEAERKLMTNTKKRGTQKVENRSQAENCSAASATRSDNDFKEQAATEVCPQAKPQKKQMVAEQEAIREDLQKDPLVVTVLKAINPFECETQEGRQEIFHATVATETDFFFVKVLNAQFKDKFIPKRTIKISNYLWHSNFMEVTSSSVVVDVESNHEVPNNVVKRARETPRISKLKIQPCGTIVNGLFKVQKITEEKDRVLYGIHDKTGTMEVLVLGNPSKTKCEEGDKIRLTFFEVSKNGVKIQLKSGPCSFFKVIKAAKPKTDMKSVE
[3]
  binding: binds
[4]
  binding: no binding (condition: non-infected cells)
